Measurements from the supplement of paper PMC10300432.

B1: C5091 (protein)
chain 1: QLQLQESGPGLVKPSETLSLTCTVSGGSISSSGYYLGWIRQPPGKGLEWIGSLYYDGTTYYNPSLKSRVTISVDTSKNQFSLRLSSLSAADTAVFYCARHLGYSSSWYLPGIHGFDIWGQGTMVTVSS
chain 2: QSVLTQPPSVSGAPGQRVTISCTGSSSNIGADYDVHWYQQLPGTAPKLLIYGNSNRPSGVPDRFSGSKSGTSASLAITGLQAEDEADYYCQSFDSSLSGLVFGGGTKLTVL
B2: C5094 (protein)
chain 1: QVQLVQSGAEVKKPGSSVKVSCKASGGTFINYSISWVRQAPGKGLEWMGRIIPILGSTTNAQNFQGRATITADKPTSTVYMELSSLRSEDTAVYYCARELDYIPDQTYYYYMDVWGEGTTVTVSS
chain 2: DIQMTQSPSSLSAFVGDRVTITCRASQSIRTYLNWYQQKPGKAPKLLIYAASSLQSGVPSRFSGGGSGTDFTLTINSLQPEDFATYYCQQCYSTPPSFGGGTKVEIK
B3: C5095 (protein)
chain 1: QVQLQQWGAGLLKPSETLSLTCGIYGGSSDTYYWSWIRQPPGKGLEWIGEINQSGTTNYNPSLKSRVTMSLDTSKNEVSLKLSSVTAADTAMYYCAREIVVVVGVGVTALRYHSYMDVWGKGTTVTVSS
chain 2: DIQMTQSPSSLSAFVGDRVTITCRASQSIRTYLNWYQQKPGKAPKLLIYAASSLQSGVPSRFSGGGSGTDFTLTINSLQPEDFATYYCQQCYSTPPSFGGGTKVEIK
B4: C5032 (protein)
chain 1: QVQLVQSGPEVKKPGTSVKVSCKASGFSFSVSSVQWVRQTRGQGLEWIGWIVVGSGRTDYAQKFQERVTITRDLSTSSVHMELRRLRSEDTAVYYCAAPTCDRTTCFDGFDLWGQGTMVTVSS
chain 2: EIVLTQSPGTLSLSPGERATLSCRASQSISSSYLGWYQQKPGQAPRLLIYGASGRATGVPDRFSGSGSGTEFTLTISRLEPEDFAVYYCQQYGRSPWTFGQGTKVEIK
B5: C5086 (protein)
chain 1: EVQLVESGGGFIQPGGSLRLSCAASGLTVSSNYMNWVRQAPGKDLEWVSVMYAGGSTFYSESVKGRFTISRDNSKNTLYLQINSLRAEDTAVYYCARSIADDAFDVWGQGTMVTVSS
chain 2: DIQLTQSPSFLSASVGDRVTITCRASQGINSYLAWYQQKPGKAPKLLIYTASTLQSGVPSRFSGSGSGTEFTLTISSLQPEDFATYYCQQLSTYPGFTFGPGTKVDIK
B6: C5097 (protein)
chain 1: QVQLVESGGGVVQPGRSLRLSCAASGFTFSNYDMHWVRQAPGKGLEWVAVISYDGSNKYYADSVKGRFTISRDNSKNTLYLQMNSLRAEDTAVYYCAKVDMAYCGGDCYARALDYWGQGTLVTVSS
chain 2: SYELTQPPSVSVAPGKTARITCGGNNIGSKSVHWYQQKPGQAPVLVIYYDSDRPSGIPDRFSGSNSGNTATLTISRVEAGDEADYYCQVWNSSSDHYVFGTGTKVTVL
B7: C5084 (protein)
chain 1: QVQLVQSGAEVKKPGASVKVSCQASGYSFSNQYMHWVRQAPGQGLEWMGIINPSAGSVTYAQKFQGRVTMTSDTSTSTVYMELSSLRSEDTAVYYCARDWGFIPSNNWLDPWGQGTLVTVSS
chain 2: EIVLTQSPATLSLSPGERATLSCRASQSVSSYLAWYQQKPGQAPRLLIYDASKRATGIPARFSGSGSGTDFTLTISSLEPEDFAVYYCQQRSNWPPMYTFGQGTKLEIK
B8: C5088 (protein)
chain 1: QVQLVESGGGVVQPGRSLRLSCAASGFSFSHYGMHWVRQAPGKGLEWVAFIWFDGSKNKYVDSVKGRFTISRDNSKNTVYLQMNSLRAEDTAVYYCATGELELGQTYFDYWGQGTLVTVSS
chain 2: DIQMTQSPSSVSASVEDRVTISCRASQSISTWLAWYQQKPGKAPKLLIYAASTLQSGVPSRFSGSGSGTDFTLTISSLQPEDFATYFCQQASDLFTFGPGTKVDIK
B9: C5099 (protein)
chain 1: QVQLVESGGGVVQPGRSLRLSCATSGFTFRHYGMHWVRQAPGKGLEWVAVILYDGSEKYYADSVKGRFTISRDNSKSTLYLQMNSLRVEDTAVYYCAKRFGPYCGGGPCYGGGFDYWGQGTLVTVSS
chain 2: DIQMTQSPSSLSASVGDRVTITCQASQDISNYLNWYQQKPGKAPKLLIYDASNLETGVSSRFSGSGSGTDFTFTISSLQPEDIATYYCQQYGNLPITFGQGTRLEI
B10: C5087 (protein)
chain 1: QVQLVQSGAEVKKPGSSVKVSCKASGDTFSSFAINWVRQAPGQGLEWMGRMFPMLGVATYAQGFKDRVTITADKSTSTVYMDLSSLRSEDTAVYYCARGMVAATPHYFDFWGQGTLVTVSS
chain 2: EIVMTQSPDTLSVSPGERATLSCRASQSVTSNLAWYQQRPGQAPRLLIYGASTRATGVPARFSGSGSGTEFVLTISSLQSEDFAIYYCQQYDNWLTFGGGTKVEI
B11: C5085 (protein)
chain 1: QVQLVQSGAEVKKPGSSVKVSCKASGGTFSNYPISWVRQAPGQGLEWMGGIIPMFDAPRYAEKFQGRVTITADESTSTAYMELSSLRSEDTAVYYCARDVSSVTVVVSGPYKAAWTGYGMDVWGQGTTVTVSS
chain 2: DIVMTQSPLSLPVTPGEPASISCRSSQSLLHGNGYNYLSWYLQKPGQSPQLLIYLGSNRASGVRDRFSGSGSGTDFTLKISRVEAEDVGVYYCMQTLQTPRTFGQGTKLEIK
B12: C5096 (protein)
chain 1: QVQLQESGPGLVKPSETLSLTCTVSGGSISSNYWSWIRQPPGKGLEWIGSMYYSGSTNYNPSLKSRVTISVDTSKNQFSLKLSSVTAADTAVYYCARDGWGLRGYSGYDFLEPGFYDYWGQGILVTVSS
chain 2: DIVMTQSPDSLAVSLGERATINCKSSQSVLYSSNNKNYLAWYQQKPGQPPKLLISWASTRESGVPDRFSGSGSGTDFTLTISSLQAEDVAVYFCQQYYGPPPTFGQGTKVEIK
B13: C5098 (protein)
chain 1: QVQLVQSGAEVKKPGASVKVSCKASGYTFTSYDISWVRQAPGQGLEWMGWISAYSGNTNYAQKLQGRVTMTTDTSTSTAYMELRSLRSDDTAVYYCARVLHYYVSGSSYYFDYWGQGTLVTVSS
chain 2: EIVMTQSPATLSVSPGERATLSCRASQSVSSNLAWYQQKPGQAPRLLIYGASTRATGIPPRFSGSGSGTEFTLTISSLQSEDFAVYYCQQCDNWPPTWTFGQGTKVEIK
B14: C5092 (protein)
chain 1: EVQLLESGGGLVQPGGSLRLSCVGSGFTFRNYAMSWVRQAPGKGLEWVSAISGDGDSTYYADSLKGRFSISRDNSMHTLYLRMNSLRVEDTARYFCAQGGGPHSSGWYEGFWFDPRGQGTLVTVSS
chain 2: DIQMTQSPSTLSASVGDRVTITCRASQSISDWLAWYQQKPGKAPKLLVYKASTLESGVPSRFSGSGAGTDFTLTISSLQPDDFATYYCQQYNNYPCTFGQGTKLEIK
B15: C5089 (protein)
chain 1: QVQLQQWGAGLLKPSETLSLTCAVHGGSLSGYYWSWIRQPPGQGLEWIGEINHSGRDNYNSSLKSRVTMSVDMSKNQLSLELSSVTAADTAVYYCARGTYYYDSSAFGVNWFDPWGQGTLVTVSS
chain 2: QSVLTQPPSVSGAPGQRVTISCTGSSSNLGAGYDVHWYQQLPGTAPKLLIYINNNRPSGVPDRFSGSKSGTSASLAITGLQAEDEADYYCQSYDTSVFAYVFGSGTKVTVL

target: SARS-CoV-2 Omicron BA.1 spike pseudovirus; assay: pseudovirus neutralization IC50; higher = weaker neutralization
Protocol: (§1)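 Single-round luciferase reporter pseudovirus mixed with antibody dilutions and put on HT1080-ACE2 clone 14 cells for 48 h; signal relative to no-antibody wells, four-parameter fit.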

| Binder | pseudovirus neutralization IC50 [µg/mL] |
| --- | --- |
| B1 | > 1 |
| B2 | 0.0804 |
| B3 | > 1 |
| B4 | 0.00824 |
| B5 | > 1 |
| B6 | > 1 |
| B7 | > 1 |
| B8 | 0.0507 |
| B9 | 0.726 |
| B10 | 0.148 |
| B11 | > 1 |
| B12 | > 1 |
| B13 | > 1 |
| B14 | > 1 |
| B15 | > 1 |

target: SARS-CoV-2 Omicron BA.4/5 spike pseudovirus; assay: as above
Protocol: as §1

| Binder | pseudovirus neutralization IC50 [µg/mL] |
| --- | --- |
| B1 | > 1 |
| B2 | > 1 |
| B3 | > 1 |
| B4 | > 1 |
| B5 | > 1 |
| B6 | > 1 |
| B7 | > 1 |
| B8 | 0.0522 |
| B9 | 0.877 |
| B10 | > 1 |
| B11 | > 1 |
| B12 | > 1 |
| B13 | > 1 |
| B14 | > 1 |
| B15 | > 1 |

target: SARS-CoV-2 Wuhan-Hu-1 spike pseudovirus; assay: as above
Protocol: as §1

| Binder | pseudovirus neutralization IC50 [µg/mL] |
| --- | --- |
| B1 | > 1 |
| B2 | 0.00326 |
| B3 | > 1 |
| B4 | 0.00049 |
| B5 | 0.00251 |
| B6 | > 1 |
| B7 | > 1 |
| B8 | 0.0269 |
| B9 | > 1 |
| B10 | 0.000676 |
| B11 | > 1 |
| B12 | > 1 |
| B13 | 0.486 |
| B14 | > 1 |
| B15 | > 1 |

target: SARS-CoV-2 Wuhan-Hu-1 spike receptor-binding domain; assay: ELISA binding EC50; higher = weaker binding; ELISA of recombinant human antibody on coated antigen, from 10 µg/ml in fourfold dilutions; four-parameter fit.

| Binder | ELISA binding EC50 [µg/mL] |
| --- | --- |
| B1 | 0.00394 |
| B2 | 0.00323 |
| B3 | 0.0194 |
| B4 | 0.0028 |
| B5 | 0.00348 |
| B6 | 0.132 |
| B7 | 0.00822 |
| B8 | 0.00279 |
| B9 | 0.00362 |
| B10 | 0.00278 |
| B11 | 0.00734 |
| B12 | 0.0927 |
| B13 | 0.00768 |
| B14 | 0.00555 |
| B15 | 0.00454 |

Recombinant human monoclonal antibodies (heavy:light variable regions). ELISA EC50 on the named antigen, from 10 µg/ml down; IC50 against spike pseudovirus on HT1080-ACE2 cells, 48 h; lower = stronger. Calls: IC50 above 1,000 ng/ml = non-neutralizing; EC50 above 1,000 ng/ml = non-binder.
